In PubChem BioAssay AID504467 (National Center for Advancing Translational Sciences (NCATS), 2011):
The campaign covered roughly 330,000 compounds. About 7,700 (2.3%) were called active. Not shown: some 26% with an inconclusive outcome. Calls follow the shape of the dose curve; as a rule, active = well fitted inhibition curve with a large enough effect; inconclusive = small, poorly fitted or top-dose-only effect, or effect the other way; inactive = flat fitted curve, though single readings scatter. The entries are a selection whose mix differs from that of the whole data set.

Assay: qHTS screen for small molecules that inhibit ELG1-dependent DNA repair in human embryonic kidney (HEK293T) cells expressing luciferase-tagged ELG1; also: nearly all actives have a fitted effect of over 55% in size
Conditions: HEK293T ELG1-luciferase reporter, luminescence, 16 h, DNA damage induced by 5-fluorouridine; series mostly up to 46.1 µM; activity change, negative = inhibition: at the top concentration
Summary of the method: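 Luminescence from the luciferase reporter, measured 30 min after ONE-Glo reagent at room temperature, was the read-out. Beforehand, 2,000 cells per well were exposed for 16 hr at 37 °C to 5-fluorouridine together with compound or vehicle.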
% is scaled to controls: 0 for no effect and ±100 for the full control effect; potency is read from the fitted curve at half-maximal effect.

Row | Structure (SMILES) | activity change, negative = inhibition | Potency
1 | C=CC[C@@H](CC(=O)N[C@@H](CO)Cc1ccccc1)C(=O)N[C@@H](COC(=O)[C@@H](CC=C)CC(=O)OC(C)(C)C)Cc1c[nH]c2ccccc12 | inactive: -21.4% | –
2 | C=CC[C@H](CC(=O)NCCO)C(=O)N[C@@H](C)COC(=O)[C@H](CC=C)CC(=O)OC(C)(C)C | inactive: 3.15% | –
3 | Cc1ccc(S(=O)(=O)N2CCCC2C(=O)NCc2ccccc2Cl)cc1 (stereo unspecified) | inactive: -15.1% | –
4 | OCC[C@H]1C[C@H](O)[C@@H](O)[C@@]2(Cc3ccccc3CO2)O1 | inactive: 7.99% | –
5 | O=C(NCc1ccccc1)C1=C[C@H](c2ccc(C(F)(F)F)cc2)C[C@H](OCc2ccc(CO)cc2)O1 | inactive: -16% | –
6 | OCC[C@H]1C[C@@H](O)[C@H](O)[C@]2(CCCc3ccccc3O2)O1 | inactive: 24.5% | –
7 | C=CC[C@H](CC(=O)NCCO)C(=O)N[C@@H](COC(=O)[C@H](CC=C)CC(=O)OC(C)(C)C)Cc1c[nH]c2ccccc12 | inactive: 18.6% | –
8 | COC(=O)C1=C(O)/C(=C/c2ccc(OCC(=O)Nc3ccccc3)cc2)N=C1C | inactive: -3.66% | –
9 | CCC[C@@H]1C[C@@H](C(=O)NC(C(C)Cl)[C@H]2O[C@H](SC)[C@H](O)[C@@H](O)[C@H]2O)N(C)C1 (stereo partly specified) | inactive: -5.9% | –
10 | COc1ccc(S(=O)(=O)N(C)C[C@H]2Oc3ccc(NC(=O)Nc4c(C)noc4C)cc3C(=O)N([C@H](C)CO)C[C@@H]2C)cc1 | inactive: 1.85% | –
11 | COc1ccc(NC(=O)N(C)C[C@@H]2Oc3c(NC(=O)Nc4c(C)noc4C)cccc3C(=O)N([C@@H](C)CO)C[C@@H]2C)cc1 | inactive: 11.5% | –
12 | COC(=O)c1ccc(OCC2c3cc(OC)c(OC)cc3CCN2C(C)=O)cc1 (stereo unspecified) | – | active: 6.51 µM
13 | O=C(C1=C[C@@H](C2CCCCC2)C[C@@H](OCCCCO)O1)N1CCOCC1 | inactive: 8.68% | –
14 | C[C@H]1COC(=O)[C@@H](Cc2ccc(F)cc2)C/C=C\C[C@@H](CC(=O)NCCO)C(=O)N1 | inactive: 14% | –
15 | CCN(CC)c1ccc(N2C(=O)/C(=C/c3cccnc3)SC2=S)cc1 | inactive: -12.3% | –
16 | C[C@]12C(=O)N(c3ccc(Br)cc3)C(=O)N1[C@H]1c3ccccc3OC[C@@H]1[C@H]2c1ccccc1 | inactive: 7.58% | –
17 | O=C(N/C(=C/c1ccccc1)C(=O)N1CCCCCC1)c1ccccc1 | inactive: -1.38% | –
18 | COc1ccc(O)c(/C=N/NC(=O)c2ccc(OCc3cccc(Br)c3)cc2)c1 | – | active: 3.66 µM
19 | O=C(COCc1ccccc1)N[C@@H]1c2ccccc2CC[C@H]1OCc1ccccc1 | inactive: -10.9% | –
20 | COc1ccc(/C=C2\SC(=O)N(CCC(=O)Nc3ccccc3)C2=O)cc1OC | inactive: -9.64% | –
21 | CC(C)(O)CC[C@@H](O)[C@](C)(O)[C@H]1CC[C@@]2(O)C3=CC(=O)[C@@H]4C[C@@H](O)[C@@H](O)C[C@]4(C)C3CC[C@]12C (stereo partly specified) | inactive: 7.89% | –
22 | COC(=O)[C@@H]1C[C@]2(OC(=O)c3ccccc3)C=CC(=O)C[C@@H]2N1C(=O)OCc1ccccc1 | – | active: 14.6 µM
23 | CCOC(=O)[C@H]1[C@H]2COc3cc(OC)ccc3[C@@H]2N2C(=O)N(c3cccc(F)c3)C(=O)[C@@]12C | inactive: -6.72% | –
24 | O=c1cc(-c2ccc(O)c(O)c2)oc2cc(O)c(C3OC(CO)C(O)C(O)C3O)c(O)c12 (stereo unspecified) | inactive: 8.75% | –
25 | BrC(=C\c1ccccc1)/C=N/N1CCN(Cc2ccccc2)CC1 | inactive: -10.9% | –
26 | O=C(NCc1ccco1)/C(=C\c1ccco1)NC(=O)c1ccc(Br)o1 | inactive: 1.52% | –

Row | Structure (SMILES) | activity change, negative = inhibition | Potency
27 | CC1(C)CC[C@]2(C(=O)O)CC[C@]3(C)C(=CCC4[C@@]5(C)CC[C@H](O)C(C)(C)C5CC[C@]43C)C2C1 (stereo partly specified) | inactive: 3.32% | –
28 | O=C(CCN1C(=O)/C(=C/c2ccccc2)SC1=S)NCCCN1CCOCC1 | inactive: -15.5% | –
29 | COc1ccccc1N1CCN(CC(O)COc2cccc3ccccc23)CC1 (stereo unspecified) | inactive: -25.6% | –
30 | CC(=O)OC[C@]12CC[C@H]3[C@@](C)(CC[C@H]4C(C)(C)CCC[C@]34C)[C@@H]1C[C@H](C1=CC(=O)O[C@@H]1OC(C)=O)O2 | inactive: -12.7% | –
31 | O=C1OC[C@@H]2CCCN2C(=O)[C@H](CC(=O)N(CCO)Cc2ccccc2)C/C=C\C[C@H]1Cc1ccc(F)cc1 | inactive: 1.13% | –
32 | COc1ccc(S(=O)(=O)N(C)C[C@H]2Oc3ccc(NS(=O)(=O)c4cn(C)cn4)cc3C(=O)N([C@H](C)CO)C[C@@H]2C)cc1 | inactive: 8.33% | –
33 | O=C(CSc1n[nH]c(=O)[nH]c1=O)N/N=C/C=C/c1ccccc1 | inactive: 13.9% | –
34 | OCCN(CCO)CC(O)COc1ccc(Br)cc1 (stereo unspecified) | inactive: 11.4% | –
35 | CC(C)C(NC(=O)c1ccccc1F)C(=O)Nc1ccc2c(c1)OCO2 (stereo unspecified) | inactive: 13.5% | –
36 | O=C(CCCN1C(=O)S/C(=C/C=C/c2ccccc2)C1=O)Nc1ccc(C(=O)O)cc1 | inactive: 1.24% | –
37 | CCC[C@@H]1C[C@@H](C(=O)N[C@@H](C2O[C@H](SC)[C@H](O)[C@@H](O)[C@H]2O)[C@H](C)Cl)N(C)C1 (stereo partly specified) | inactive: 1.33% | –
38 | CCOC(=O)[C@@H]1[C@H]2COc3cc(OC)ccc3[C@@H]2N2C(=O)N(c3cccc(C)c3)C(=O)[C@@]12C | inactive: 5.68% | –
39 | Cc1ccc2c(c1)C(c1ccccc1)N(C(=O)c1ccccc1[N+](=O)[O-])CC(=O)N2 (stereo unspecified) | – | active: 20.6 µM
40 | O=S(=O)(c1cccc2nsnc12)N1CCN(C/C=C\c2ccccc2)CC1 | inactive: -12.9% | –
41 | O=C(Nc1cccc2ccccc12)/C(=C\c1cccc([N+](=O)[O-])c1)NC(=O)c1cccs1 | inactive: -30% | –
42 | CC(C)(C)OC(=O)C[C@@H]1C/C=C\C[C@@H](CC(=O)N[C@H](CO)Cc2ccccc2)C(=O)NCCOC1=O | inactive: 0.537% | –
43 | OCC[C@H]1C[C@H](O)[C@@H](O)[C@]2(Cc3ccccc3CO2)O1 | inactive: 6.4% | –
44 | CCSc1ccc([C@@H]2[C@@H]3C(=O)N(C)C(=O)[C@@H]3[C@]3(C(=O)OC)CCCCN23)cc1OC | inactive: -11.5% | –
45 | C/C(Cl)=C\CSc1nnc2n(N)c(=O)c3ccccc3n12 | inactive: -1.31% | –
46 | O=C(C1=C[C@H](c2coc3ccccc3c2=O)C[C@H](OCc2ccc(CO)cc2)O1)N1CCN(Cc2ccc3c(c2)OCO3)CC1 | – | active: 13 µM
47 | O=C(Cc1ccc(F)cc1)N[C@@H]1c2ccccc2CC[C@H]1OCc1ccccc1 | inactive: 11.1% | –
48 | CC(C)[C@H](NC(=O)N1CC(=O)Nc2ccccc21)C(=O)N1CCC[C@@H]1C(=O)O | inactive: 10.5% | –
49 | CCCn1c(SCC(=O)Nc2sc(C)c(C)c2C#N)nnc1C(C)C | – | active: 20.6 µM
50 | CCO[C@H]1OC(C(=O)NCc2ccccc2)=C[C@@H](c2ccc(C(F)(F)F)cc2)[C@@H]1CCCO | inactive: -10.5% | –
51 | COc1ccc2[nH]c3c(c2c1)CCN1C(=O)C(CC(=O)NCC24CC5CC(CC(C5)C2)C4)C[C@H](C(=O)N2CCCCC2)[C@@]31C (stereo partly specified) | – | active: 13 µM
52 | CC(=O)C[C@H](O)CC(=O)[C@@H]1OC(=O)CCCCC/C=C/Cc2ccccc21 | inactive: 14.8% | –

Row | Structure (SMILES) | activity change, negative = inhibition | Potency
53 | C=CC[C@H](CC(=O)N[C@H](CO)Cc1ccccc1)C(=O)N[C@H](COC(=O)[C@@H](CC=C)CC(=O)OC(C)(C)C)Cc1c[nH]c2ccccc12 | inactive: -7.35% | –
54 | COc1ccc(OC)c(NC(=O)CN(c2ccc(C(C)C)cc2)S(=O)(=O)c2c(C)noc2C)c1 | – | active: 8.2 µM
55 | C[C@H](NC(=O)c1[nH]cnc1C(=O)Nc1nccs1)c1ccccc1 | inactive: 15.9% | –
56 | C[C@@H]1OC(Nc2ccc(N=Nc3ccccc3)cc2)[C@H](O)[C@H](O)[C@H]1O (stereo partly specified) | inactive: 0% | –
57 | COc1ccc(S(=O)(=O)N(C)C[C@H]2Oc3c(NS(=O)(=O)c4cn(C)cn4)cccc3C(=O)N([C@H](C)CO)C[C@@H]2C)cc1 | inactive: 16.9% | –
58 | O=C(c1cc(=O)[nH]c2ccccc12)N1CCN(S(=O)(=O)c2ccc(Cl)cc2)CC1 | – | active: 23.1 µM
59 | COC(=O)Cc1csc(N)n1 | inactive: 10.3% | –
60 | O=C(NCCO)/C(=C\c1ccc2c(c1)OCO2)NC(=O)c1ccc(Br)cc1 | inactive: 0.678% | –
61 | CCC12CCCN3CCc4c(n(c5ccccc45)C(O)(C(=O)OC)C1)C32 (stereo unspecified) | inactive: 3.73% | –
62 | CC(C)NC(=O)N(C)C[C@H]1Oc2ccc(NC(=O)Nc3ccccc3)cc2C(=O)N([C@@H](C)CO)C[C@@H]1C | inactive: 11.7% | –
63 | COc1cc(C(=O)O[C@H]2C/C(C)=C/CC[C@]3(C)O[C@@H]3C(O)C2C(C)C)cc(OC)c1OC (stereo partly specified) | inactive: -17.3% | –
64 | OCC[C@H]1C[C@H](O)[C@@H](O)[C@]2(CCc3ccccc3CO2)O1 | inactive: 3.22% | –
65 | O=C(O)CSc1nc2c(c(C(F)(F)F)n1)CCCC2 | inactive: -0.906% | –
66 | COC(=O)[C@@H]1C[C@@]2(O)[C@@H](O)[C@@H](O)[C@@H](O)C[C@H]2N1C/C=C/c1ccccc1 | inactive: 9.65% | –
67 | O=[N+]([O-])c1ccc(C(O)C(CO)NC(=S)Nc2ccccc2)cc1 (stereo unspecified) | – | active: 8.2 µM
68 | O=C(COc1ccccc1)N[C@@H]1c2ccccc2CC[C@@H]1OCc1ccccc1 | inactive: -4.54% | –
69 | COc1cc(C(=O)NCc2ccncc2)cc(Br)c1OCc1ccccc1 | – | active: 14.6 µM
70 | CC(C)(C)OC(=O)C[C@@H]1C/C=C\C[C@@H](CC(=O)NCCO)C(=O)N2CCC[C@H]2COC1=O | inactive: 10.9% | –
71 | CCO[C@@H]1OC(C(=O)N2CCN(Cc3ccccc3)CC2)=C[C@H](c2cn(C(C)=O)c3ccccc23)[C@H]1CCCO | inactive: -22.3% | –
72 | COC(=O)[C@@H]1C[C@@]2(O)[C@@H](O)[C@@H](O)[C@@H](O)C[C@H]2N1Cc1ccc(C)s1 | inactive: 29.5% | –
73 | Cc1ccc(-c2nc(NC(=O)c3nn(C)cc3[N+](=O)[O-])sc2C)cc1 | – | active: 16.4 µM
74 | COc1ccccc1NC(=O)[C@@H]1CCCN1S(=O)(=O)c1ccc(Cl)cc1 | inactive: -17.8% | –
75 | O=C(C1=C[C@H](C2CC2)C[C@H](OCCCCO)O1)N1CCOCC1 | inactive: 20.5% | –
76 | CC(C)(C)OC(=O)NCc1ccc(CNC(=O)c2nc[nH]c2C(=O)N2CCN(C(=O)OC(C)(C)C)CC2)cc1 | – | active: 11.6 µM
